# The list shows a part of the results. These are further read-outs of the screen, such as a control signal, another cell line or another target. No call is given for them.
# Tests used:
# Test in all cases: Primary Screen for Target Class Profiling of Small Molecule Inhibitors of Methyltransferases
# [1] = molecular target: Glycine N-methyltransferase (Homo sapiens) (UniProt Q14749); conditions: purified enzyme, MTase-Glo SAH luminescence; measured here: GNMT inhibition; at 40 µM; stronger effect = lower value
# Outline: (§1)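 Each enzyme was reacted with SAM and its substrate, with compounds tested once at 40 uM; SAH formed was read by MTase-Glo luminescence.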
# [2] = molecular target: Guanidinoacetate N-methyltransferase (Homo sapiens) (UniProt Q14353); conditions: purified enzyme, MTase-Glo SAH luminescence; measured here: GAMT inhibition; at 40 µM; stronger effect = lower value
# Outline: as §1
# [3] = molecular target: Histamine N-methyltransferase (Homo sapiens) (UniProt P50135); conditions: purified enzyme, MTase-Glo SAH luminescence; measured here: HNMT inhibition; at 40 µM; stronger effect = lower value
# Outline: as §1
# [4] = molecular target: Nicotinamide N-methyltransferase (Homo sapiens) (UniProt P40261); conditions: purified enzyme, MTase-Glo SAH luminescence; measured here: NNMT inhibition; at 40 µM; stronger effect = lower value
# Outline: as §1
# [5] = molecular target: Phenylethanolamine N-methyltransferase (Homo sapiens) (UniProt P11086); conditions: purified enzyme, MTase-Glo SAH luminescence; measured here: PNMT inhibition; at 40 µM; stronger effect = lower value
# Outline: as §1
# % is set by controls: 0 for no effect and ±100 for the full control effect.
Structure (SMILES),"activity change, negative = inhibition [1] [%]","activity change, negative = inhibition [2] [%]","activity change, negative = inhibition [3] [%]","activity change, negative = inhibition [4] [%]","activity change, negative = inhibition [5] [%]"
COc1ccc(N2C(=O)CSc3c(c4ccccc4n3C)C2C(=O)NCCCOC(C)C)c(OC)c1 (stereo not drawn),4.81,0,-0.146,2.81,2.94
Cc1cccc(CNC(=O)CNC(=O)C2(C)Cn3c(cc4ccccc43)C(=O)N2C)c1 (stereo not drawn),-0.306,0,0.545,-2.67,1.46
O=C(NCCN1CCC(n2c(=O)[nH]c3ccccc32)CC1)c1cc2cc(F)ccc2[nH]1,-30.4,5.46,1.6,-23.6,-6.51
O=C1CCN(Cc2ccncc2)CCCC(C(=O)NCCCN2CCCC2=O)CCN1 (stereo not drawn),-2.89,-3.1,-1.83,-0.266,-5.29
COc1cccc(S(=O)(=O)N2CCCC(c3nnnn3C)C2)c1 (stereo not drawn),3.12,1.86,14.8,6.99,11
CCOc1ccc(CCNC(=O)CNC(=O)C2(C)Cn3c(cc4ccccc43)C(=O)N2C)cc1 (stereo not drawn),4.55,0,7.01,8.08,2.47
Cc1nn(C)cc1C(=O)N1C[C@@H](CO)[C@H](c2ccncc2)C1,-5.06,-4.66,-2.56,-10.6,5.46
CCOC(=O)C1CCC(CNC(=O)N2CCn3cccc3C2C)CC1 (stereo not drawn),4.02,0.804,10.5,-1.91,5.93
CC(C)NC(=O)c1ccc2c(=O)n(C(C)C)c3nn(Cc4ccc(Cl)cc4)c(=O)n3c2c1,-2.64,0.639,5.63,-4.99,5.01
CC1CCN(S(=O)(=O)c2ccc3c(ccn3CCC(=O)NCc3ccc4c(c3)OCO4)c2)CC1,4.62,0,-0.285,-0.422,2.27
O=C(c1ccccc1F)N1CCC2(CC(c3cccc(C(F)(F)F)c3)=NO2)C1 (stereo not drawn),-3.8,-1.85,-1.29,-12.5,-1.43
CCCC(=O)N1CCC(O)(c2ccccc2)[C@H](N2CCCC2)C1 (stereo partly drawn),-15.4,-7.37,-8.79,-15.4,-10.8
CCOC(=O)N1CCC(NC(=O)c2ccccc2C2CCNC2)CC1 (stereo not drawn),-4.12,-4.47,-5.46,-9.11,-8.31
CCCN1C(=O)c2cc3sc(CC)cc3n2CC1(C)C(=O)NC1CCCCCC1 (stereo not drawn),-5.49,6.11,-1.85,-4.31,-3.71
CCCCc1cc(C[C@H]2CNCC[C@H]2CC(=O)N2CCC(Cc3ccccc3)CC2)no1,-6.85,-4.79,-9.65,-20.5,-6.05
CC(=O)[C@H]1CC[C@H]2[C@@H]3CC=C4C[C@@H](OS(=O)(=O)O)CC[C@]4(C)[C@H]3CC[C@]12C,-9.66,2.06,-3.22,-24.1,-12.6
COc1ccc(OC)c2c1cc1n2CC(C)(C(=O)NC2CCCC2)N(Cc2cccc(F)c2)C1=O (stereo not drawn),-3.28,1.14,4.27,-8.36,-5.09
O=C1NC[C@@H](CCC(=O)N2CCc3ccccc32)N2C[C@@H](NCc3ccc(CO)o3)C[C@@H]12,-4.89,-1.11,-1.14,-2.41,-5.58
CN1C(=O)c2cccn2CC1CNC(=O)c1cccc2nccnc12 (stereo not drawn),-4.52,-3,0.351,-7.85,-2.84
C=CC(=O)N1CCC(Oc2cc3c(Nc4ccc(Cl)c(Cl)c4F)ncnc3cc2OC)CC1,-17.4,0.996,-30.9,-24.2,-20.5

Structure (SMILES),"activity change, negative = inhibition [1] [%]","activity change, negative = inhibition [2] [%]","activity change, negative = inhibition [3] [%]","activity change, negative = inhibition [4] [%]","activity change, negative = inhibition [5] [%]"
O=c1[nH]c2ccc(S(=O)(=O)Nc3ccccc3)cc2[nH]1,13,0,13.4,5.46,1.88
CCOC(=O)c1cc2n(n1)CC(C)(C(=O)NC1CCCC1)N(c1cccc(F)c1)C2=O (stereo not drawn),9.25,4.12,7.92,3.91,6.69
CC(=O)NC[C@H]1CN(c2ccc(N3CCN(C(=O)CO)CC3)c(F)c2)C(=O)O1,-9.62,-14.5,-6.02,-21,-11
CCN(CCO)CCCOc1ccc2c(Nc3cc(CC(=O)Nc4cccc(F)c4)[nH]n3)ncnc2c1,-8.6,7.35,-48.2,-20.1,-11.7
Cc1c(C(=O)NCCCO)cnn1-c1nc(-c2cccc(C(F)(F)F)c2)cs1,-19.9,10.2,-14.6,-9.56,-2.95
CC(NC(=O)C(O)C(C)C)C(=O)NC1C(=O)N(C)CCc2ccccc21 (stereo not drawn),-7.04,,-4.55,,
CC(C)Cn1c(=O)c2ccc(C(=O)NC3CCCC3)cc2n2c(=O)n(CC(=O)NC3CCCC3)nc12,3.74,3.67,10,1.24,0.565
CC(C)CC(NP(=O)(O)O[C@@H]1O[C@@H](C)[C@H](O)[C@@H](O)[C@H]1O)C(=O)NC(Cc1c[nH]c2ccccc12)C(=O)O (stereo partly drawn),-0.534,4.28,-1.06,-4.32,0.241
CC(C)c1cc(C(=O)N[C@@H]2COCC[C@@H]2Oc2cccc(F)c2)nc(N)n1,-2.6,2.02,-0.764,0.317,-6.5
COc1ccccc1CN1C(=O)c2nc3ccccc3n2CC1(C)C(=O)NC1CCCC(C)C1C (stereo not drawn),2.09,0.142,0.438,1.89,-1.65
C=CCn1c(=O)c2ccc(C(=O)NC(C)C)cc2n2c(=O)n(CC(=O)Nc3cc(C)ccc3C)nc12,-1.4,4.02,1.34,0.649,-1.75
COc1ccc(C(=O)N2CCCN(c3nnc4ccc(Cl)cn34)CC2)cn1,-4.1,-0.642,-0.418,-10.4,-6.35
O=C(c1ccc(F)cc1)N1CCC(OCCOc2cccnc2)CC1,-0.24,-1.54,-2.53,-2,1.64
CC(=O)C12OC(C)(C)OC1CC1C3CCC4=CC(=O)C=CC4(C)C3(F)C(O)CC12C (stereo not drawn),-0.712,6.99,0.698,-16.6,-6.69
CC(C)CCNC(=O)C1c2c(n(C)c3ccccc23)SCC(=O)N1C1CCCCC1 (stereo not drawn),7.77,0,9.19,7.6,6.75
O=C(Cn1nc2c(cc1=O)CCCCC2)Nc1nnc(C2CCCO2)s1 (stereo not drawn),-3.01,-1.4,1.08,-5.53,2.97
CCCCCCCCCCCCCCCC(=O)OC(CC(=O)O)C[N+](C)(C)C (stereo not drawn),-2.98,7.61,1.96,-8.78,8
O=C(NCc1ccccc1Cl)c1ccc2c(=O)nc3c(-c4ccc(F)cc4)n[nH]n3c2c1,-2.83,-2.03,-6.18,-4.65,-6.45
C[C@@H](O[C@H]1OCCN(Cc2n[nH]nc2CN(C)C)[C@H]1c1ccc(F)cc1)c1cc(C(F)(F)F)cc(C(F)(F)F)c1,-3.33,19.9,11.6,-3.76,7.65
Cc1cc2[nH]c(=O)[nH]c2cc1S(=O)(=O)N1CCN(c2ccccc2)CC1,5.23,1.54,8.44,-9.94,-0.031

Structure (SMILES),"activity change, negative = inhibition [1] [%]","activity change, negative = inhibition [2] [%]","activity change, negative = inhibition [3] [%]","activity change, negative = inhibition [4] [%]","activity change, negative = inhibition [5] [%]"
CCC(C(=O)NCc1ccccc1)n1ccc2cc(S(=O)(=O)N3CCCCC3)ccc21 (stereo not drawn),7.63,1.75,9.11,10.3,6.96
O=c1c2ccccc2n2c(=O)n(Cc3ccccc3F)nc2n1CCc1ccccc1,-5.03,-6.34,10.1,-5.94,-6.94
CO[C@@H](C(=O)N1Cc2[nH]nc(NC(=O)c3ccc(N4CCN(C)CC4)cc3)c2C1)c1ccccc1,,2.32,,-12.3,-3.68
CCC1Oc2ccc(NC(=O)Cc3ccc(OC)cc3)cc2CN(Cc2ccc3c(c2)OCO3)C1=O (stereo not drawn),-3.9,-0.534,-8.33,-8.04,-5.97
COCC(=O)N[C@@H]1CCC[C@@H](C(=O)NC2CC2)CC(=O)N(C)C1,-9.89,-11.3,-17.4,-18,-1.79
CN1CCN(C2=Nc3cc(Cl)ccc3Nc3ccccc32)CC1,1.02,12.4,3.74,-8.91,7.75
COc1ccc([C@@H](NC(=O)c2coc3ccccc23)C2CC(O)C2)cn1 (stereo partly drawn),0.912,1.15,2.23,-5.72,-0.902
COc1ccc(C)cc1NC(=O)CCC[C@@H]1[C@H]2CCCN3CCC[C@@H](CN1Cc1cccnc1)[C@@H]23,-3.65,1.79,-13.1,0.599,2.98
CCCCCc1ccc(/C=C/[C@H](O)[C@@H](CO)NC)cc1,,4.58,,-16.3,-7.84
Cc1c(Cc2ccc3ccccc3n2)c2cc(F)ccc2n1CC(=O)O,-2.65,2.96,8.98,-16.6,0.53
CC1CCN(S(=O)(=O)c2ccc3c(c2)oc(=O)n3CC(=O)NCc2ccc(Cl)cc2)CC1,-8.1,6.72,-6.64,-7.71,-8.09
CCOC(=O)c1cccc(NS(=O)(=O)c2ccc3c(c2)NC(=O)C(C)C(=O)N3)c1 (stereo not drawn),3.08,0,2.1,9.53,-0.028
O=S(=O)(NCc1ccc(F)cc1)c1ccccc1-c1nc(-c2ccc(F)cc2)no1,15,3.7,13.5,6.59,7.66
CC(=O)OC1C(=O)C2C3OCC4=C3[C@@](C)(CC[C@@H]4O)CC[C@]2(C)[C@H]1C(C)C (stereo partly drawn),-1.85,-3.25,8.9,-18.9,-12.9
Cc1ccc(NC(=O)CSc2nnc3n(C)c(=O)c4ccc(C(=O)NC5CCCC5)cc4n23)cc1F,0.67,0,8.54,1.7,8.76
COc1ccc(/C=C/C(=O)O[C@@H]2[C@@H](O)[C@@H](O)[C@H](O[C@H]3[C@@H]4C=CO[C@@H](O[C@@H]5O[C@H](CO)[C@@H](O)[C@H](O)[C@H]5O)[C@@H]4[C@@]4(CO)O[C@@H]34)O[C@H]2C)cc1,0,2.66,4.72,-7.39,6.22
COc1ccc(N2C(=O)c3cc4oc(C)cc4n3CC2(C)C(=O)NC2CCCCCC2)cc1OC (stereo not drawn),-4.81,2.88,-0.501,2.04,-1.14
Cc1ccc(NC(=O)[C@@H]2OCC(=O)N(C)[C@H]2c2ccccc2)cc1,-0.488,-0.638,1.66,0.409,1.74
O=C(O)c1ccccc1Nc1ccccc1,-3.4,6.87,6.75,-9.1,-5.72
